The test system of this assay is NCI-H322M lung. The assay can be described thus: growth of human tumour cells (NCI), 48 h.

Where “and” joins values, the source holds several entries; their conditions need not be identical. Equal values may be shown once.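 Following 48 hours of exposure in 96-well plates, responses at five concentrations were used to interpolate endpoints linearly. Abbreviation: GI50, concentration required for 50% inhibition of growth. TGI denotes the concentration required for complete inhibition of growth.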

Regarding `COc1cccc(NC(=O)CC(=O)N2N=C(N(CCC#N)c3ccc(Cl)cc3)CC2c2ccccc2)c1` (centres undefined), the TGI is greater than 100 µM.
The compound `Cc1cc(-c2nc3c(O)cccc3s2)ccc1N` gave a TGI of 83.4 µM.
`Cc1nn(C(=O)Cc2ccccc2)c2c1C(c1ccccc1O)SC(N)=N2` (centres undefined) registered a TGI greater than 100 µM.
The same measure, in the same setting: to `O=C1/C(=C/c2ccccc2S)N=C(c2ccccc2)N1c1nc2ccc(Sc3ccccc3)cc2[nH]1` belongs greater than 100 µM; to `CCCCCCCCCc1cc(=O)c2ccc(OCc3ccccc3)cc2o1`, greater than 100 µM; to `Cc1occc1C(=S)Nc1ccc(Cl)c(COC(C)(C)C)c1`, 36.1 µM.
Turning to `CCCC[C@H](NC(=O)[C@H]1CCCN1C)C(=O)N(C)[C@H](C[C@@H](OC(C)=O)c1nc(C(=O)N[C@@H](Cc2ccccc2)C[C@H](C)C(=O)OCC)cs1)C(C)C`, the GI50 was 0.0176 µM and the TGI was greater than 33.3 µM.
For `C=CCc1c2c(c(OC)c3ccoc13)C(=O)/C(=C/c1ccccc1OC)O2`, the GI50 is 5.93 µM and the TGI was determined as 67.5 µM.
In the case of `CNC(=O)c1cncc(/C=C/c2ccccc2C)c1`, the GI50 was greater than 25 µM and the TGI is greater than 25 µM.
`Cc1ccc(S(=O)(=O)Oc2cc(N)c3c(n2)CCC3)cc1` had a TGI greater than 100 µM.
`C[n+]1c(-c2ccccc2)cc2/c(=C\c3ccc([N+](=O)[O-])cc3)c3ccccc3n21`: the TGI was greater than 88.9 µM.
As to `CC(CC(C#N)(c1ccccc1)c1ccccc1)N1CCCCC1` (centres undefined), the TGI is greater than 100 µM.
On the same count and under the same terms, the figure for `CC(=O)N/N=C1/NN(C(C)=O)C2(S1)C(=O)Nc1ccc(Br)cc12` (centres undefined) is greater than 100 µM.
`Oc1ccc(-c2nnc3sc(-c4ccc(F)cc4)nn23)cc1`: the GI50 is greater than 100 µM and the TGI is greater than 100 µM.
The compound `CCNC(=O)Nc1ccccn1` had a TGI greater than 100 µM.
The compound `CCCCCCCCCC[C@H](O)[C@H]1CC[C@H]([C@H]2CC[C@H]([C@H](O)CC[C@H](O)CCCCCCC[C@@H](O)CC3=C[C@H](C)OC3=O)O2)O1` displayed a TGI greater than 100 µM.
`CC1(C)O[C@@H]2COC(=O)[C@@H]2O1` displayed a TGI greater than 100 µM.
`COc1ccc(C(=O)/C=C/c2ccc(/C=C/c3cc(OC)c(OC)c(OC)c3)cc2)cc1`: the GI50 was 19.8 µM and the TGI is greater than 100 µM.
On to `COc1ccccc1NC(=O)CC(=O)N1N=C(C)C(N=Nc2ccc(S(N)(=O)=O)cc2)C1=O` (centres undefined), for which the TGI is greater than 100 µM.
Still for that read-out and setting: the figure for `COc1cc2c(cc1OC)C1c3ccccc3CCN1CC2` (centres undefined) is greater than 100 µM; for `Cc1cc2c(C)cc(=O)[nH]c2cc1N` it is greater than 100 µM.
The compound `CCCCOc1ccc(NC(N)=Nc2ccc(Cl)cc2)cc1` returned a TGI of 16.9 µM.
Compound `NC(=S)N/N=C(/CC(=O)c1ccccc1)C(=O)Nc1ccc(Cl)c(Cl)c1` displayed a TGI greater than 100 µM.
Still for that read-out and setting: to `O=C1CCC(=Nc2ccc(Cl)cc2)N1C(=O)COc1ccc(OCC(=O)N2C(=O)CSC2=Nc2ccc(Cl)cc2)cc1` belongs greater than 100 µM; to `C/C(=C\c1ccccc1)C(=O)CCN1CCOCC1`, greater than 100 µM.
For the compound `CC(C)NC[C@@H](C(=O)N1CCN(c2ncnc3c2[C@H](C)C[C@H]3O)CC1)c1ccc(Cl)cc1`, the GI50 was > 10 µM and 33.3 µM; the TGI was greater than 100 µM.
With `COc1cc2c(cc1OCCCCOc1cc(-c3ccc(F)cc3)nc(C)n1)N=C[C@@H]1CCCN1C2=O`, the TGI came out at 3.27 µM.
Consider `CN(C)c1nc(=NCc2ccncc2)ss1`, for which the TGI is greater than 100 µM.
Regarding `COc1ccc2c(CCCC(c3ccccc3)c3ccccc3)c3[n+](cc2c1OC)CCc1cc2c(cc1-3)OCO2`, the GI50 is 1.25 µM and the TGI is 2.62 µM.
For the compound `CCOC(=O)c1[nH]cc(C)c1-c1ccn(-c2ccccc2)c1`, the TGI was greater than 100 µM.
Compound `COC(=O)c1csnn1` gave a TGI greater than 100 µM.
Compound `CCC1=CCC23C(=O)C=CC(=O)C2(C1)C(=O)c1cccc(OC)c1C3=O` (centres undefined) registered a TGI greater than 100 µM.
Consider `CCN1C(=O)N(CC)C2C1NN=c1s/c(=C\c3cccnc3)c(=O)n12` (centres undefined), for which the GI50 was 0.548 µM and the TGI was greater than 100 µM.
Regarding `CC(C)=C[C@@H]1C[C@H](n2cc(C)c(=O)[nH]c2=O)ON1CCO`, the TGI is greater than 100 µM.
Still for that read-out and setting: to `C=CCC1([C@H](C)[C@@H](OC(C)=O)c2cc(OC)c(OC)c(OC)c2)C[C@@H](OC)CCC1=O` (some centres undefined) belongs 69.9 µM; to `O=C(CC(=O)CC(O)(C(F)(F)F)C(F)(F)F)CC(O)(C(F)(F)F)C(F)(F)F`, greater than 10 µM.
In turn, `COP(=O)(O)/C=C/C(NC(=O)C(Cl)(Cl)Cl)c1ccccc1` (centres undefined) registered a TGI greater than 100 µM.
The compound `O=Cc1cn(C(=O)c2ccccc2)c2ccccc12` yielded a TGI greater than 100 µM.
In the case of `CC1(C)C(c2ccccc2)=[N+]([O-])C(C)(C)N1O`, the TGI is greater than 10 µM.
As for `N#C/C(=C1\OC(=O)C(c2ccc(Br)cc2)=C1O)c1ccc(Br)cc1`, the TGI is 30.3 µM.
Consider `CCC(=O)OC[n+]1ccc2c(C)c3[nH]c4ccc(OC)cc4c3c(C)c2c1`, for which the TGI was 1.53 µM.
On to `C=C1C(=O)OC2/C=C(\CO)C(OC(C)=O)CC(O)/C(C)=C/C(OC(=O)C(C)CC)C12` (centres undefined), for which the TGI is greater than 100 µM.
On to `CC(C)=CCc1c2c(c3occ(-c4ccc(O)c(O)c4)c(=O)c3c1O)C=CC(C)(C)O2`, for which the TGI was 14.4 µM.
Regarding `CNS(=O)(=O)NN(C)S(=O)(=O)c1ccc(F)cc1`, the TGI was greater than 100 µM.
`CCC[C@H]1C(=O)N=C(N)N1C(=O)OCc1ccccc1` displayed a TGI greater than 100 µM.
As for `Cc1c(C(=O)/C=C/c2csc3ccccc23)[n+](=O)c2ccccc2n1[O-]`, the GI50 is 1.77 µM and the TGI was found to be 3.9 µM.
Take `O=c1c2ncn(C3CC(O)C(CO)O3)c2nnn1Cc1ccccc1[N+](=O)[O-]` (centres undefined): the TGI is greater than 100 µM.
As to `C1CCSCCCCSCCCCSCCCCSC1`, the TGI is greater than 100 µM.
`CC1=NCCc2c1[nH]c1cc(O)ccc21`: the TGI was greater than 100 µM.
As to `CN(C(=O)C12C3C4C5C3C1(C(=O)O)C5C42)C(C)(C)C` (centres undefined), the TGI is greater than 100 µM.
Same read-out and setting: the figure for `Nn1c(CCCCCCCCc2nnc(COc3c(O)ccc4ccccc34)n2N)nnc1COc1c(O)ccc2ccccc12` is greater than 100 µM; for `CCCc1[nH]nc(CCC(=O)N(Cc2ccccc2)Cc2ccccc2)c1CC` it is greater than 100 µM; for `CCCCCCCCCCCCOC(=S)NCCCC` it is greater than 100 µM.
For `CCCCn1c2c(n(CCCC)c1=S)-c1c(n(CCCC)c(=S)n1CCCC)S[Se][Se]S2`, the TGI is greater than 77.7 µM.
With `Nc1ccn(Cc2ccc(C34CC5CC(CC(C5)C3)C4)c(O)c2)c(=O)n1`, the GI50 was greater than 100 µM and the TGI was greater than 100 µM.
For `COc1ccc(N[C@H](CSc2ccc(C)cc2)c2ccc(F)cc2)cc1`, the TGI was greater than 100 µM.
`COc1cc(/C=C2\C(=O)N(C(=O)Cc3ccccc3)N=C2C)ccc1O` yielded a TGI greater than 100 µM.
Same read-out and setting: to `O=C(c1ccc(F)cc1)c1cccc(C(=O)c2ccc(F)cc2)n1` belongs greater than 100 µM.
For `O=C1c2ccccc2-c2c1c1ccccc1c(=O)n2CCCNCCCNCCCn1c2c(c3ccccc3c1=O)C(=O)c1ccccc1-2`, the GI50 was less than 0.0245 µM.
`NC(=O)C(=O)N/N=C1/c2ccccc2CC1C1(O)C(=O)Nc2c(Cl)cc(Cl)cc21` (centres undefined) registered a TGI greater than 100 µM.
`O=C(CN1CCCCC1)CC(O)(C(F)(F)F)C(F)(F)F` displayed a TGI greater than 100 µM.
For the compound `O=C1c2ccccc2CN1c1ccc(O)cc1`, the TGI is greater than 100 µM.
`COc1ccccc1NC(=O)C1=C(C)NC(C)=C(C(=O)Nc2ccccc2OC)C1c1ccccc1F` yielded a TGI greater than 100 µM.
On to `COc1c2c(c3c(c1CCC(=O)O)OC(C)(C)C=C3)OC(C)(C)C=C2`, for which the TGI was greater than 100 µM.

Source of the values: PubChem BioAssay (NCI).
